Hit rate of the full screen: of about 350,000 compounds, about 31,000 (8.9%) were called active. Inconclusive results, whose numbers are uncertain, are shown with a selection of clear calls. Calls follow the shape of the dose curve; as a rule, active = well fitted inhibition curve with a large enough effect; inconclusive = small, poorly fitted or top-dose-only effect; inactive = no such curve, though single readings can be large or run the other way. Potencies of inconclusive entries are doubtful fits and often do not repeat.
biological target: Histone-lysine N-methyltransferase EHMT2 (Homo sapiens) (UniProt Q96KQ7); assay: qHTS Assay for Inhibitors of Histone Lysine Methyltransferase G9a; conditions: G9a H3K9 monomethylation, AlphaScreen, 2 h; activity, negative = inhibition: at 59 µM (top of the series) unless noted; also: nearly all actives have a fitted effect of over 75% in size
Sequence of UniProt Q96KQ7 (Q96KQ7 whole entry, looked up): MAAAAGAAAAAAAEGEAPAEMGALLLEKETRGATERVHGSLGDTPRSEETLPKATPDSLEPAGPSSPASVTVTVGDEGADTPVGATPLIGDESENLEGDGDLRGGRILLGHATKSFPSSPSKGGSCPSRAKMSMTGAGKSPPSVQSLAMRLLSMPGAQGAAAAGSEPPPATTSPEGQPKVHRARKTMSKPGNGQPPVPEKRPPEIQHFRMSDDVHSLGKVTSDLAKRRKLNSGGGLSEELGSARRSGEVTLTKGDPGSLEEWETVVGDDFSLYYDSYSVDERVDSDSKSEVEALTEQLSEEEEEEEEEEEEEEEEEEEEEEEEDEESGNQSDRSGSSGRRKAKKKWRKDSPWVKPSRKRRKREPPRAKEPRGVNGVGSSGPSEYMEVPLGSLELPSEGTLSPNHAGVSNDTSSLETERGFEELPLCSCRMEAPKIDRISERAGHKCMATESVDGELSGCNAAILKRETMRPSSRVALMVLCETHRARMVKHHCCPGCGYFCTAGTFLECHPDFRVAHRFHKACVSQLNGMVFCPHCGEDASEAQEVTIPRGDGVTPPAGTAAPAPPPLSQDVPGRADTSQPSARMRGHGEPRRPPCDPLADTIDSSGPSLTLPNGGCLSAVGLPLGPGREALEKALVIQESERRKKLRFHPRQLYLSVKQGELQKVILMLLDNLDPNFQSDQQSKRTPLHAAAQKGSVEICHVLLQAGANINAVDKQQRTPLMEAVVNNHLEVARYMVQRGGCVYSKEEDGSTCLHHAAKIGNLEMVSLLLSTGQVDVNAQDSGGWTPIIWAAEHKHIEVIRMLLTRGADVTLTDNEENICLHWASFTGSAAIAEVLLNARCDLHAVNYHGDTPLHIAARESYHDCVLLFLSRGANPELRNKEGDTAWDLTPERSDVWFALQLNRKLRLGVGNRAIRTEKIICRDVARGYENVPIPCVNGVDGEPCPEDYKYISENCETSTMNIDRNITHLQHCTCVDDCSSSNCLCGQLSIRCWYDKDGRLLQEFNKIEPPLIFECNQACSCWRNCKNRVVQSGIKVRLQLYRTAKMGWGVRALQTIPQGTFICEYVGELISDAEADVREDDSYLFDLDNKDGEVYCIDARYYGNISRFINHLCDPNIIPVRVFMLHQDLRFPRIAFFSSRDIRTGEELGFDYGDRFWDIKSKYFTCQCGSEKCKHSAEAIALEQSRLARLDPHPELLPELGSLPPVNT
How it was run: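 Quantitative HTS format: methyltransferase activity on a biotin-tagged H3K9 peptide is measured by AlphaScreen, using a rabbit anti-monomethyl-H3K9 antibody with streptavidin donor and anti-IgG acceptor beads. Final levels are 20 nM enzyme, 500 nM peptide, 20 uM SAM; 2 h RT.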
% is scaled to controls: 0 for no effect and ±100 for the full control effect; potency is read from the fitted curve at half-maximal effect; tags tell the direction and shape of the fitted curve.

Row | Structure (SMILES) | Potency | activity, negative = inhibition
1 | c1csc(Cc2nc3ccccc3[nH]2)c1 | inconclusive: 44.7 µM [inhibitor, partial curve, poor fit] | 
2 | CCOC(=O)c1nnc2c(Br)c(-c3ccccc3)nn2c1C |  | inactive: -1.18%
3 | CCn1c(C)c(C)c2cc(C(=O)NCCc3ccc(C)cc3)ccc21 | inconclusive: 31.6 µM [inhibitor, partial curve, poor fit] | 
4 | CN(C)c1ccc(CN(C(=O)COc2ccccc2)C2CCS(=O)(=O)C2)cc1 (stereo not given) | inconclusive: 1.41 µM [inhibitor, full curve, poor fit] | 
5 | COc1cc([N+](=O)[O-])ccc1NC(=O)CCCOc1ccccc1 | inconclusive: 70.8 µM [inhibitor, single point] | 
6 | C[N+]12CCCCC1C(COC(=O)c1ccc3c(c1)OCO3)CCC2 (stereo not given) | inconclusive: 0.631 µM [inhibitor, partial curve, poor fit] | 
7 | O=C(c1ccc2c(=O)n(CCc3ccccc3)c(=O)[nH]c2c1)N1CCN(c2ccc(Cl)cc2)CC1 |  | inactive: -3.31%
8 | CCOc1ccc(/C=C/c2[nH]c(=O)[nH]c(=O)c2[N+](=O)[O-])cc1 | inconclusive: 89.1 µM [inhibitor, single point] | 
9 | O=C(CSc1nnc(COc2ccccc2F)n1-c1ccccc1)NCc1ccco1 | inconclusive: 31.6 µM [inhibitor, single point] | 
10 | c1ccc(COc2ccc(OCCN3CCCCC3)cc2)cc1 | inconclusive: 0.199 µM [inhibitor, full curve, poor fit] | 
11 | COc1cccc(NC(=O)CCNC(=O)Cn2ccc3ccccc3c2=O)c1 | inactive | 
12 | O=C(Nc1cccc(S(=O)(=O)N2CCOCC2)c1)c1c2c(nc3ccccc13)CCC2 | active: 22.4 µM | 
13 | CC1=C(C#N)C(=O)N(C2CCS(=O)(=O)C2)C(=O)/C1=C\c1ccco1 (stereo not given) | active: 5.01 µM | 
14 | Cc1ccccc1CS(=O)(=O)Cc1ccc(C(=O)NCc2ccc(F)cc2)o1 |  | inactive: -4.2%
15 | COc1cccc(NC(=S)N/N=C2/CCCCc3ccccc32)c1 | active: 39.8 µM | 
16 | O=C(c1cccc(F)c1)N1CCC2(CC1)CN(C(c1ccccc1)c1ccccc1)C2 |  | inactive: 5.57% [at 12.7 µM]
17 | N#Cc1nc(-c2ccccc2)oc1NCc1ccco1 | inconclusive: 28.2 µM [inhibitor, single point] | 
18 | OCC(O)C(O)C(O)C(O)C1NCCS1 (stereo not given) | active: 50.1 µM | 
19 | COc1cc(OC)cc(-c2nnc(Sc3ccc(C=O)cc3[N+](=O)[O-])o2)c1 | active: 25.1 µM | 
20 | O=C(COc1cccc(C(F)(F)F)c1)N1CCN(c2ccc(O)cc2)CC1 | active: 7.94 µM | 

Source: PubChem BioAssay AID504332 (National Center for Advancing Translational Sciences (NCATS), 2011)
